# From the supplement of paper PMC11417369
# ± gives the standard deviation of the averaged measurements. The list shows a part of the results.
# Test system: PfAP2-G AP2 domain (GST-tagged)
# Assay: gcPBM binding intensity (ln(normalized median fluorescence intensity)); higher = stronger DNA binding
# Method in brief: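 Binding of GST-tagged P. falciparum DNA-binding domains, expressed in E. coli and used at about 25 μg on average, was carried out for 1 h in 1× PBS containing 1% milk, 0.2 mg/ml BSA, 0.5% salmon testes DNA and 0.03% Triton X-100. The target was an Agilent 4 × 180k array of primer-extended double-stranded 36-bp intergenic genomic probes plus negative controls, read with Alexa488 anti-GST antibody at 488 nm. Binding intensity is the highest Masliner-normalised natural-log median intensity across replicate spots of either probe orientation.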
row,Sequence,gcPBM binding intensity (ln)
1,GATAATACATAAATTTATAAGTGGAAGAATAAATAA [CACACA_negctrl_site698],10.09 ± 0.057
2,GAAATATTACAAAGTACATGCAACGAAAATTTCAGT [TGCATGCA_site608],10.9 ± 0.52
3,CTTTTAGAATAATCAGTGCAAAAAAAAAAAAAAAAA,9.75 ± 0.62
4,TTTTTTTTCAAAAATACAAAAAAAAAAGAAAAAAAC [CACACA_negctrl_site625],10.3 ± 0.33
5,ACAAACAAATAAATATGTACGAATAAATAAAATTTT [XGTACX_site4664],11 ± 0.56
6,TTAAATGTTCTATATACATGCAATGATATGTTTCTG [TGCATGCA_site317],9.8 ± 0.071
7,TCAAAGTAGGCTTATATGCACACTTTGAAATATTAT [CACACA_site1920],9.765 ± 0.021
8,AAAAAAAAAAAAACTTGTACATGTGATATTATCTAT [XGTACX_site6169],10.8 ± 0.38
9,ATTTAATACATACATTCACACACACTAATTGTATAT [CACACA_site9361],10.11 ± 0.028
10,ACAAAAAAAAACGTGGTGCATTAATAATATTGTATA [GTGCAC_site9469],10.13 ± 0.092
11,TTTAAAATAAATATTACACACAAAATATTAAAAAGC [CACACA_site2129],10 ± 0.042
12,ATATATACATATGGGTGTACATATGCACATATATAT [XGTACX_site8437],11.3 ± 0.71
13,TAGTTAATATGAAAAAGTACACGTTTCAGTGAAAGT [XGTACX_site7402],11.7 ± 1
14,AAAGAATTCATTATTTGTACTTAAATAAATAAATAA [XGTACX_site5932],11 ± 0.75
15,AGAAAGAAAGAATACACACACACATATATATATATC [CACACA_site3744],9.895 ± 0.021
16,AGCACACGCAGACACACACACACACGCACACGCACA [CACACA_site6306],10.4 ± 0.18
17,AAAGGATATGCTTCATATATATATTGTTATATATGT [CACACA_negctrl_site1672],9.65 ± 0.15
18,TCATTATATACAATATGTACATATATGTAATAAACA [XGTACX_site4611],11.2 ± 0.73
19,TATTTATATAGGTATACACACATACAAATATGTAAA [CACACA_site7705],10 ± 0.28
20,AATACCTATAATACAACACACAAGTAATATAAACCT [CACACA_site7661],10 ± 0.028
21,ATAACACAAAAAGGGGGTACAATAAAAAAAAAAAAA [XGTACX_site1652],11.5 ± 0.98
22,ATAAGAAGGAACATAAATATATCATAAAAAAAAAAA [GTGCAC_negctrl_site169],9.74 ± 0.28

row,Sequence,gcPBM binding intensity (ln)
1,TAAAATTTTTTATTCACACAAATATAGTTATATATA [CACACA_site5348],9.81 ± 0.16
2,ATTTTTCAAACTTTAGTGCAATGAAAGAAAGAAAAA,10 ± 0.35
3,GGAGGTTGTTATAAAAGTACAAAAAGTTGCAATTTT [XGTACX_site7351],11 ± 0.59
4,GTTTTCCTTCCCTTTCCCCCTCAAAAAAAGGGAACA [TGCATGCA_negctrl_site436],11.1 ± 0.85
5,AAGGAATAAAGAAGTTGTACATAATTTGTATCATCC [XGTACX_site3891],11.2 ± 0.65
6,AAATTAATATAAATATGTACATAAATAATAAAATAT [XGTACX_site6131],11.3 ± 0.65
7,TTTCAGCCAAACGATAAACTACGACACTTGAACGAA [CACACA_negctrl_site1747],10.1 ± 0.18
8,TATATTAATAGACACACACACATATTTATATTTATA [CACACA_site6859],10.09 ± 0.071
9,TACTGTGATAGCACCACACACGCAAAAGTGAGTATA [CACACA_site1109],10.3 ± 0.29
10,TATATTTAGTAAAAAGGTACCATTCTTATTTATATT [CACACA_negctrl_site1165],10.7 ± 0.29
11,GTAATTATTATTAATAGTACACACTATGGCATTTCA [XGTACX_site5192],11.2 ± 0.77
12,ATATATTTTTTTTCTTCACACACATGAATTATATAT [CACACA_site9053],10.2 ± 0.16
13,ATATATATATATATATGTACATATTATATATGAACG [XGTACX_site1585],11.3 ± 0.74
14,AATAATAGAAAAAGGTGTACTTATAAACATATACAC [XGTACX_site6921],11.5 ± 0.83
15,ATTTTTTTTTTTATGTGTACATATATTTTTTTAATT [XGTACX_site7921],11.6 ± 0.97
16,AAGAAAAAATAAACATGTACATAAATATATATATAT [XGTACX_site304],11.3 ± 0.8
17,ATTTAATTTATAAAAACACACACAGGTAAAAAGGTG [CACACA_site8306],10.5 ± 0.21
18,CAAATACATGTGTAAAGTACATATTAATAAGTCTTT [XGTACX_site6342],11 ± 0.67
19,GAAAATTCTTAAGGCACACACATATATAATATATAC [CACACA_site569],10.3 ± 0.3
20,AATTTAACCCATTTTATAATTATTACCACTATATAT [TGCATGCA_negctrl_site452],10.3 ± 0.16
21,TAAGGCCCTTTTCATCGTACAGTAAAATATAAATAA [XGTACX_site1278],11.1 ± 0.81
22,CATACTGTGATAGCACCACACACGCAAAAGAGGGTA [CACACA_site8285],10.2 ± 0.26
